Measurements: article PMC10726135
The other results are listed elsewhere or left out. At the low end of the ranking the order means little. The protein was read in a cell extract, so binding may be indirect.

biological target: T1, HNF4alpha2 (COS-7 nuclear extract) (UniProt P41235); assay: protein-binding microarray; settings: COS-7 nuclear extract on double-stranded Agilent 4x180k PBM; binding buffer, salt, pH and temperature not given; high values mean tight binding; double strand, one strand shown; sequences stand for … in …GCCTAGGGAGATTAGAGTATCGGTCGA
T1 sequence: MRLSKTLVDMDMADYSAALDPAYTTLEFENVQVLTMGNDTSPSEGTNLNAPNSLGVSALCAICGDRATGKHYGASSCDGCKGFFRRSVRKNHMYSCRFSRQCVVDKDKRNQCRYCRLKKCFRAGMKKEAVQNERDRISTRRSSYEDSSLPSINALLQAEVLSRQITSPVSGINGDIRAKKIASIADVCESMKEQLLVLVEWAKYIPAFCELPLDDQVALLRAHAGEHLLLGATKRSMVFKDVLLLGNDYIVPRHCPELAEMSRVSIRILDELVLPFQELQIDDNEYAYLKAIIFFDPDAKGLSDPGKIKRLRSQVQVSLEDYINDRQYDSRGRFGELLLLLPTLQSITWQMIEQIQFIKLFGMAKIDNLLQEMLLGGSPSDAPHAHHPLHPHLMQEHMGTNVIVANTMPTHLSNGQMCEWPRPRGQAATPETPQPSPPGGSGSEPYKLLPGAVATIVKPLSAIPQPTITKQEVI

Sequence	binding signal (log2 normalized intensity)
GTCTCTTCCTCAGTTTGTTCTTGGGGCCCA	1.55
ACGGAGCTGCCTCACATGAGCTAGAGCTCG	-1.16
GACAGTGAGACGCAAGCATATCTCTAGATC	-1.15
ACATGTCAAAGGTCAAAGGGCATAGCCTCA	5.53
GGACTCTGCCCTTAGCAGTGGGAGACAGGC	2.51
CTGTGTCAAAAATCAGGGACAAAGTCCAAA	6.06
AGTCTCTAGCCCCGCCCAGATGTCTGGCTA	2.39
CTAACCTTTGAACCAGATGGCCCTCTCCAA	2.52
CAGAAGCTGAGCTCCCCCAGTGAGCAATTC	2.64
AAGTTTGTTTCTTATCACACAGTCAACATG	1.02
TTTGGTGAAACTCCACTACATTAGCAGCGC	-0.823
TGAGTCACTTGGTTTTCACAACCTCCCTTT	1.98
GCTCTGCGCAGGCGCAGTCCTCTCTCGCGA	-1.19
GGTTACACAGTATGTTAATGGCAGAATCAA	1
GAAAAGGCAGCAGCTTGGAATGTCAGGAAC	-1.11
AAGATTTCAGTAGCAAACCAATTCGCATAG	-1.04
GCCTCCTGGCTGGGCAGGCTCCCTCCCTGG	-1.07
AAAATATCTGATCGATATCCTAACCATGCC	-1.09
CAGAGATTGGGACTATCAAATGTGGTGGGT	1.01
CGTACTTTTCATCTGATCAGTGCCCATCTG	1.51
TATTATCTTTTTAATCAATAATCTTTGCCC	2.85
CTGACCTCTGCCTCGGCCACATTCCCCGAC	0.998
CCCCTGGCAACACCCCAGTGTGTTGCATGC	2.01
CAGCAATAGGTCAGAGGACACCCGGGGTGG	-1
TGGTCAGTGCATAGCTAAGCACCCAGATAA	-1.02

Sequence	binding signal (log2 normalized intensity)
TTGAGACCTAGAGGAGAGAGTAAATAATTG	-1.11
TCCTGCCTAACCACCTGACCACAACACACA	-1.12
CCACCTACTGACCAAATGGGAACATTCCTC	-1.14
ATAGAGAAGCCAGGGGTAAGTTTCTAACTA	-1.08
TCTGATAAGGAAGATAATGGGTCCGAAGGT	1.85
TGGTCCTGCTCAAAGGGGAAAGAGGGGGAA	-1.12
CATCACAATAGGGAAACAGCGAGAGTCCTC	-0.957
AGGAGGAGATAAGATCAGTATAGTTAGGGC	0.153
ACAGGTTCCCTCATGATTTAGTAAGTTCAA	1.37
CAGGGTCCAAAGGTGTCAAGAACATAGCCC	2.58
GGTAGATGGGGCCAGATTGAGAAACACATT	-0.67
TGGGCAGGAGGGATCTGGCAGGGGCGCGGC	-1.17
ATCCTGTCAGACCAAGGCTGCTTAACAAAC	-1.15
AATGCGCAGAATTTCTTTTAATGTGTGCTT	0.506
TTCCTCTTCATATCAGTAAACCCCAATCAG	3.84
CTTGGAGACAGTCACTCCCACCCTTCCTGT	1.9
GCCAAGCAGGAGGTCAGAAACAGAAAGTCC	-0.898
TGCCAGCCCCGAGATAACCCCTCTCCAAGC	4.59
TTCTTTACCATGTGTTGGCACTTTGGACTT	6.31
CAGTAGGTCAGTGTCCCTCTTATACTCTCT	0.517
ATGGGAAGCTTCACAAAGGGCTGAGGTTAA	-1.15
CTCATCCTGTGACCAAGAATGCCTAACCTC	-1.06
GCGCGCTGGGAAGGCTCGTTCTCGCGAGAG	-1.09
TCTGTACGGAAGGCCGGGCCTCAAGGGAAT	-1.24
ATTAAGCTGAGGCAGAGTTGTTTGCAGAGG	1.04

Sequence	binding signal (log2 normalized intensity)
CATTGCAAAATCCATCTAAATGGCAATGGC	-0.84
GAAAAGAGGAAAACCAGCTCAGTGGAAATT	-1.12
GTGGCCATCTTCACGCAATACTAGCAATAA	-1.05
TTTTTCATGCAAATTTCCGTGTCGAAACTA	-1.03
AAGGGACAAAACTTCAAAGCCCCTGAGGCC	-1.06
AAATCACAGATAAACCCCTGGAGCACAGAA	-0.969
TTATTTGCGCCTCCCTAGAGCAGCAGTAGG	-1.04
GCCAGATGAAGCTGCAGCCTTAAGAGAGTT	-1.09
TTAAGCAGCAGATAAGGCTAATCCTTACAC	-1.05
GTGCAAACTTTTTCCTTTTCTTATCTGTTC	1.83
CAAAGGCACAGATCATATGGCCCACAAAGC	-1.14
ACGTCGCTGCCGCAGATCCCCGCTCCCCTC	3.84
GTGTGGGACTTTGGTCTGCTGAGTCTCATG	1.74
CAGGGGGGCGCCTACGGACGGGTAAGAGTC	-1.1
AGGTCCAAGCAGATGCTTTGAAGTGTAAAA	-0.0949
TTTACCTGCCTGTGCTGTGGCTGCCAAGAC	-1.13
TCAAAGGCCAAATTGACACCGTATCATCAA	-1.03
AGTGCAAGCAAACATACTGCTTATTTAAAT	-1.09
GCAAGAGAATCAGAGAGATACTGAACCTTG	2.1
TCCCCCGCCAGATGTTTTTACCCTGAAGGA	2.58
CAGCTACACAAAGGCAGAGCACTAAATCTC	-1.08
CACCTCTCACCTGGATGTTTTGATGAACTT	2.32
CACCCTTCAGCAAATAGTGGGAGGTGGAAG	-1.05
TATTGTAAAAGAAAGTGAGCAGGCAGTGTC	0.633
ATTCACCAGGCAATCAGCCTTAGGTATGCC	-1.08

Sequence	binding signal (log2 normalized intensity)
GCCTCTTGACCCCTTGGCCCCGCTGTCCTG	3.93
ATGGGCAAAGGACAATAATGAATAAGCACG	-1.1
TTTCCCCTAGTTACAACTGTAAACATCTAA	0.797
GAAGGAGAGTGACCTCTGCTTGAAGGCATT	0.57
TTTACTCAGAAAGGTCAGCGCTTTGGTAGG	1.41
CCTACATAGAGAGCAGTCTTGAGCGCAAAT	-1.2
AGTAGCTCATTTATTATTTGTCTGGGTTAT	1.93
TGGTGGGTCAAGGTGCAAAGAGATGGGGAG	0.918
GTGTTGACCTCTGGACCTCATCTTCCTCCC	4.53
CACAGGGGAAACACAGACTCCAAAGAATGG	-1.15
CTTTGAAATGTCCTGAGTGATTGTAGTGTC	1.82
AGTCTTGGATCGGGATGATCAATGTGTAGT	1.89
TGTCCCCAAGATTGAGGCCAGCAAAGGGCA	1.83
GCGGTCCGCAGCGCTGGTGGCTGCAAGGTT	-0.959
CCCCCCGCCGCATCTACCAGCGTAATTCTG	2.44
GAGGTGCCAGAAACCTGACTTCCAATTTAC	-0.709
ATCTTTGACCTGGAGCATGACCCTTTGCAG	2.68
GTCAAAAATCTTAAGGAGGAGTGCTAGAGA	-1.07
CAGTGTCATTTACAGAATTTCTCAGATGCC	0.153
CACTTTGCTCCCTCCTTCAGTGCTCTGTTG	1.37
GGACCTTGCCCTTTAGTTATCTCTTCTTTC	4.59
AGTGCCCTTCCACTTAGGCTTGCAATGCGG	-1.16
TCGAGGCCTCTTTATCTCCTCCCCTTGAGA	2.79
AGAGCAAAGATCATCTGGTGGCTTGAGTTG	0.0929
GGCCGTGAAGCCGTCCTGTCCTGGACTTTC	4.02

Sequence	binding signal (log2 normalized intensity)
AGAGTCCGGGGCAAACAAGGGCAACTCTAA	-1.02
CCAACGGGCCACGCCCTGCACCCTACGTAA	-1.2
TGCGCCTCCCTAGAGCAGCAGTAGGCTCTC	-1.15
GGATCTGGCAGGGGCGCGGCCTAATGCCTG	-0.932
AGGACAAAGTCCAAGGAAGGGCAAACTCTA	2.88
TTCATTGCTTTGAGCATGAGAGTTCATTGC	1.1
CTCCAAGGTGTCCAGCTTAGAGTGGACACA	1.24
GTAGTGATCCTGGTAGGGGGGTGTTATCTC	-0.0378
GGATGCTGAGGTGGGAGGATCGCTTGAGCC	-1.24
CGAGGCCGAGCCTCAGCCGGGAGAGGAGGC	-1.11
AAAGATAGTTGTAGTTACAGCTCATTAATC	0.177
AACATGTAAATATGACCTTTGCTTTTCAAG	4.29
AGGCTCCCTCCCTGGGAGGCAGGACCTTGG	0.689
GAGTAGGTTCTCAGCTGACATTGGTGGAAT	1.36
TTCCCCTGACAAGTATCTCGGTCAAACCTT	0.885
CTCCAGCCACCCTGAAGGCTGAGCCTAGGA	-1.23
CTTCAGTCCTTCCCCCGCCAGATGTTTTTA	3.94
ACCTGAAAGAGCAACTACTCTCTCTTCTGG	-1.06
TGTAGGGAAATAAAACAGTCCATTTCAGTG	-0.528
ACAGCATTAAGCTGAGGCAGAGTTGTTTGC	-0.0646
TGGGGCCCATTACAGACTTTCAACAAGGTG	1.28
CAGCTGATGAGGCACCAACACTTCCCAATC	-1.07
AGACTTGGGTTCAAAGAGCACATTCCTGCA	2.96
TCCTGCTGGGCAGAGGGCAGAAGCCTCTCT	-1.04
GTATTACCTGCATCTGCCCAGCAGAGCAGT	-1.06

Sequence	binding signal (log2 normalized intensity)
ATAAAGGGCAGGAACATCAGACACAGAGAT	-1.1
CCTAGAAAAACAACTAAAGGAATGCGCCTG	-0.898
AAACAGGAAAAAGGGACAAAACTTCAAAGC	-1.06
GTCCTGGGGCGATGCTTCCAAAGTCCACAG	4.35
CCTGTGCCCACTTTCCTGGGCCGGGGTAGC	-0.159
ATAACGTTACAGTGGAGAAACCTGACAGAC	-1.09
AATAAAGTGGCAACCCTTGACCCCAGTAAC	4.81
CCCAAGGAGAGGAGGGAACAGCAAGACTTT	-1.14
GCTGCTGGGAGGTAGCTCAAAGTCTAACCC	2.63
TTCAAAGGGCAAAAGGGCAAAACTGTCACA	3.26
GGAAAAAAAAACCACTGTGTCACGCACGGT	-1.11
TCAAAGGAGGCATTCCTGCAATCAGAGCTG	-1.09
ACTCCCACCAGCATGGTGATGCTAGCTACT	-1.18
CTGGCCTGTTTGATCTGGTTTTTGTTGTTG	2.37
GGGACTAGCCTTATCTCAGATGAGACTTTG	1.7
CCTCTGCAACCTTTGCTCTCCCTCCTCTCT	3.1
CAGCTGCAGTGAAATTCTGGCCAACCAGCA	-1.11
AAGTTCATTGTAGCCTCAAATTCCTGGGCT	-1.08
AACCATAATGAAATACCACTGCACACATAA	-1.06
GGAAGGCAAAGTTCAACCCTGAATGTGTGC	2.24
